Assay results published in paper PMC12040169 (PLOS Biology, 2025).
The other results are listed elsewhere or left out.

Tested on: T1, C. trachomatis L2/434/Bu expressing GFP (CTL2-GFP)
T1 construct: L2/434/Bu GFP intracellular growth in HeLa cells
Design: species or system HeLa; C. trachomatis total inclusion area by high-content imaging, normalised to DMSO
Details: total inclusion area; 28.5 h, 10 µM; inhibitor
Summary of the method: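 High-content images of fixed, Hoechst-stained infected cultures supply inclusion area and count (growth) plus nuclei number (viability), complementing bulk GFP/resorufin fluorescence. MIC determination is unchanged from the primary assay.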

SMILES	% of control remaining
Cc1ccc(C(C)C)c(OC(=O)c2ccc3nccnc3c2)c1 [CBK269114]	37.2997
O=C1CCC(=O)N1CCn1c(=O)n(C(=O)CCCOc2ccc(Cl)cc2)c2ccccc21 [CBK106496]	93.6064
N#Cc1cccc(NC(=O)NC[C@H]2C[C@@H]3CC[N@]2C[C@@H]3CN2CCCCC2)c1 [CBK288765]	110.837
C[C@H](NC1=NC(=O)[C@@](C)(C(C)(C)O)S1)c1ccc(F)cc1 [CBK138436]	82.108
Cc1ccc(C2(O)CCN(C(=O)CC3CCN(C(=O)CC4CCCCC4)CC3)C2)cc1 (centres unmarked) [CBK286132]	140.982
CC12CN3CC(C)(CN(C1)C3c1ccc(O)cc1)C2O (centres unmarked) [CBK262663]	100.253
C=CCNc1nc(N)c(/C(N)=N/C#N)s1 [CBK019028]	80.4708
CCOc1ccc(-c2ccnc(N3C[C@@H](C)O[C@@H](C)C3)n2)cc1C(=O)O [CBK306584]	65.0008
Cc1ccc([N+](=O)[O-])cc1NC(=O)C1CCCN1S(=O)(=O)c1ccc(Cl)cc1 (centres unmarked) [CBK033769]	89.6108
CCOc1ccc(OC(=O)C2CCN(C(=O)CC(C)C)CC2)cc1 [CBK154228]	80.2739
CCN(CC(=O)NCc1cccnc1)S(=O)(=O)c1ccc2ccccc2c1 [CBK300514]	105.735
CCCN1CCN(c2ncnc3scc(C4COc5ccccc5O4)c23)CC1 (centres unmarked) [CBK266590]	106.8
CCNc1nc(=S)[nH]c2sc3c(c12)CCC(C)C3 (centres unmarked) [CBK086242]	45.5939
CCn1c(C)nc2cc(S(N)(=O)=O)ccc21 [CBK260950]	85.0469
O=C1Nc2c(cnn2-c2ccc(Cl)cc2)C2=NCCN12 [CBK284341]	64.3444
CN(c1cncc(Cl)n1)C1CCN(Cc2ccccc2)CC1 [CBK012767F]	53.0342
COc1ccc(CCNC(=O)N(C)C2CCN(C)C2)cc1OC (centres unmarked) [CBK156007]	88.2717
O=C(NC(c1ccccc1)c1ccccn1)C1CCN(C(=O)Oc2ccccc2)CC1 (centres unmarked) [CBK060105]	94.8425
CC(C)(CN)CN(Cc1ccccc1Br)C(=O)NC(c1ccccc1)c1ccccc1 [CBK002488C]	22.0175
O=C(NCCNc1ccc(Cl)cc1[N+](=O)[O-])c1c(F)cccc1F [CBK269643]	87.3959
CSc1ncc(Cl)c(C(=O)Nc2sc3c(c2C(=O)NCc2ccco2)CCC3)n1 [CBK268991]	95.0329
Cc1n[nH]c(C)c1CNC(=O)c1[nH]c2c(Cl)cccc2c1C [CBK282534]	117.52
Cc1cc2c(s1)c1cnn(CCN3CCCC3)c(=O)c1n2C [CBK284180]	100.562
O=C(O)CCC(=O)N1CCN(c2ncccn2)CC1 [CBK057422]	54.979
COc1ccc(C(C)=O)cc1Cc1c(O)nc(SC)nc1O [CBK262699]	107.193
CCc1nc2c(OCc3ccccc3)cccn2c1N(C)C(=O)c1ccncc1 [CBK147876]	97.5986
CC1(C)CC(CN)(c2ccccc2)CCO1 (centres unmarked) [CBK025559C]	109.55

SMILES	% of control remaining
O=C(CSc1nnc(Cc2cccc3ccccc23)n1-c1ccccc1)N1CCc2ccccc21 [CBK266697]	108.659
CCN(CC)C(=O)c1ccc(NS(=O)(=O)c2cccc(Cl)c2C)cc1 [CBK034393]	95.5794
CC(=O)Nc1ccc(-c2cccc(COC3CCN(C(=O)Cc4cc(F)cc(F)c4F)CC3)c2)cc1 [CBK149489]	84.9768
COc1ccc(Cl)cc1N1CCN(CCN2CCCCC2)CC1 [CBK126445]	101.204
Cc1c(C#N)c(=O)ncn1Cc1ccncc1 [CBK021603]	100.31
CCn1c(CN[C@@H]2CCC[C@H]2Cc2cc(C)no2)cnc1SC [CBK282965]	119.428
OC1(c2cccnc2F)CCN(Cc2cc(F)ccc2F)CC1 [CBK284371]	79.9527
O=C(c1cn2ccccc2n1)N1CCCN(Cc2cscn2)CC1 [CBK305352]	100.108
CCCc1ccc(C(=O)N2CCC(C(=O)c3cccnc3)CC2)o1 [CBK285482]	81.0937
COc1cc2c(cc1OC)C1(CCN(C(=O)Nc3ccc(F)cc3F)CC1)NC(=O)C2 [CBK047264]	90.7737
COc1ccc(OC(C)C(=O)Nc2cc(OC)c(Cl)cc2OC)cc1 (centres unmarked) [CBK263627]	75.9234
CC(C)(C)c1cc(C(=O)NCC2CCCN2)n(Cc2ccc(Cl)cc2Cl)n1 (centres unmarked) [CBK115920C]	41.987
CNCc1ccccc1Sc1cccc(OC)c1 [CBK026207C]	86.8788
COc1ccccc1-c1nccnc1NCc1ccccn1 [CBK036894]	103.964
CN1CCCN(c2cncc(-c3ccc4c(c3)OCO4)n2)CC1 [CBK065978]	118.205
COc1ccc(C)cc1-n1ccc(C(=O)NC2CCSCC2)n1 [CBK305502]	38.2851
COc1ccccc1-c1ccc2c(c1)COC1(CCN(C)CC1)O2 [CBK061024]	102.489
CCOC(=O)c1sc(NC(=O)CCNC(=O)c2ccccc2C(=O)O)c(C#N)c1C [CBK295152]	84.653
CCCCN(C)c1c(CC)nc2ccc(C(=O)Nc3ccc(OC)c(OC)c3)cn12 [CBK145445]	102.758
COc1cc(/C=C2\N=C(c3cccs3)OC2=O)ccc1OCc1ccc(Cl)cc1 [CBK263176]	101.841
c1ccc(-c2nc(-c3ccncc3)[nH]c2-c2ccccc2)cc1 [CBK291155]	72.0231
Cc1ccc(C(=O)O)cc1NC(=O)C(=O)NCC(c1ccccc1)N(C)C (centres unmarked) [CBK286777]	95.7112
C=CCOc1cccc(CNc2nn[nH]n2)c1 [CBK267618]	85.7781
CC(C)C(=O)N1CCC[C@@H]2NC(=O)c3ccccc3OCC/C=C/C[C@@H]21 [CBK292064]	101.186
Cc1cc(C)n2c(SCC(=O)O)nnc2n1 [CBK027406]	71.9368
CN(C)c1cccc(-c2cncc(NCc3ccco3)n2)c1 [CBK065555]	112.245
COc1ccc(/N=C(/Nc2cccc(C(F)(F)F)c2)SC)cc1 [CBK018896I]	89.4898

SMILES	% of control remaining
COc1ccc(-c2nnc(SCC(=O)Nc3cc(C(C)(C)C)no3)n2C2CCCCC2)cc1OC [CBK295131]	98.4882
Cc1n[nH]c(O)c1C(c1ccc(Br)o1)c1c(C)n[nH]c1O [CBK026150]	89.2275
CN1CCN(CC(CC(=O)Nc2ccccc2)C(=O)O)CC1 (centres unmarked) [CBK286746]	77.0544
O=C(Nc1nc2ccccc2[nH]1)NC1CCCCC1 [CBK288210]	78.2406
COc1cccc(-c2cc(C(=O)N3CCC(C)CC3)n[nH]2)c1 [CBK288109]	92.0415
CN(C)CCCNC(=O)c1cc2cc(Cl)cc(Cl)c2oc1=O [CBK269132C]	93.078
O=C(NCc1ccc(Cl)c(Cl)c1)c1cncc(-c2ccc(C(=O)N3CCOCC3)cc2)c1 [CBK158612]	60.5666
COc1ccc(CN2C(=S)N(c3ccccc3)[C@H]3[C@@H]2[C@H]2OC(=O)[C@@H]3C[C@H]2O)cc1 [CBK288937]	93.9839
COc1ccccc1-c1ccc(CC2(C(=O)NCc3ccc(F)cc3)CCOCC2)cc1 [CBK286518]	91.9072
Cc1cc(CSc2cccc(F)c2)no1 [CBK002916]	91.1372
CCN(Cc1cccnc1)C(CC1CCCCC1)c1ccccc1 (centres unmarked) [CBK061673]	83.8652
O=C(CC1(O)C(=O)Nc2ccccc21)CC1(O)C(=O)Nc2ccccc21 (centres unmarked) [CBK263705]	123.98
CC(Cc1cccs1)NC(=O)c1cc2c([nH]c1=O)CCCCC2 (centres unmarked) [CBK282523]	76.3172
Cc1cc(C)c2c(OCC(=O)Nc3nc(C(N)=O)cs3)nn(C)c2n1 [CBK305530]	40.8164
COCCn1c(SCc2cn3cc(Br)ccc3n2)nc(C)c1C [CBK305704]	69.8863
COc1ccc(Cl)cc1NC(=O)CCCn1cnc([N+](=O)[O-])n1 [CBK268882]	105.346
CC(C)[C@@H](Cn1nnc2ccccc21)NC(=O)c1ccco1 [CBK282335]	90.4575
CCn1cc(C2CN(S(=O)(=O)c3ccccc3OC(F)F)CCO2)cn1 (centres unmarked) [CBK304234]	49.5086
CCc1cc2c3c(c(=O)oc2cc1OCc1cc(C(=O)O)oc1C)CCCC3 [CBK264402]	120.68
COc1ccc(N2C(=O)CC(N3CCN(c4ccc(C(=O)c5cccnc5)cc4)CC3)C2=O)cc1 (centres unmarked) [CBK268924]	120.618
O=C(N/N=C/c1ccccn1)c1n[nH]c2c1CCCC2 [CBK262882]	102.118
O=C(c1ccccc1)c1ccc2n1CCC2C(=O)N1CCN(c2ccccc2)CC1 (centres unmarked) [CBK300536]	102.922
OCCCNC(c1ccccc1)c1ccc(O)cc1 (centres unmarked) [CBK266329]	119.545
COc1ccc(C)cc1S(=O)(=O)n1ccc2c(CNC3CC(C)(C)NC(C)(C)C3)cccc21 [CBK113311T]	92.3824
O=C(Nc1ccc2oc(-c3cccnc3)nc2c1)c1sc2cc(Cl)ccc2c1Cl [CBK267876]	110.947
Cc1ccc2c(c1)CC(=O)NC21CCN(Cc2cccc(Br)c2)CC1 [CBK039392]	94.2306
